From US20250051460A1 (Boehringer Ingelheim, published 2025)

Each binder was assayed against human TrkB receptor (human, UniProt Q16620 32-822) (assay: cell-based or functional assay).
UniProt Q16620, sequence (Q16620 32-822): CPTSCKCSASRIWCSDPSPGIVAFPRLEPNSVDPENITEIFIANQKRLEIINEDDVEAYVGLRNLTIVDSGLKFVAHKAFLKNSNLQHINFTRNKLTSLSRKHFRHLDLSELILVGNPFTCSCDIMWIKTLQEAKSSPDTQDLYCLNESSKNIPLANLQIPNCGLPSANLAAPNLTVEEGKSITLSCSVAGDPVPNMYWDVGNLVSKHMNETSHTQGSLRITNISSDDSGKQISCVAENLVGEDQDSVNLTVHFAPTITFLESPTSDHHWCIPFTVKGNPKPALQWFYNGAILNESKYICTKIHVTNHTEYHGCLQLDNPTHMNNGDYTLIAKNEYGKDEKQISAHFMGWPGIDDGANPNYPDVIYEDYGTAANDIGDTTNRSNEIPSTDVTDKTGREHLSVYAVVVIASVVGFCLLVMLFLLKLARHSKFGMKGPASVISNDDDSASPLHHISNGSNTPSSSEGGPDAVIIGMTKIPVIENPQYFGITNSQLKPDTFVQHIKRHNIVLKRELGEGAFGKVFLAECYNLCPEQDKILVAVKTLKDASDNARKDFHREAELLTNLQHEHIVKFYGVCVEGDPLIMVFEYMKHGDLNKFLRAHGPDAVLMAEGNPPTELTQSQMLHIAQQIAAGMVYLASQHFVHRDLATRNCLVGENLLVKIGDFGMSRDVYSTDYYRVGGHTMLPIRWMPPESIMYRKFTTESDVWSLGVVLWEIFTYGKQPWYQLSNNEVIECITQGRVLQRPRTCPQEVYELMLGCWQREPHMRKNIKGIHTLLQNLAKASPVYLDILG

TrkB-phosphorylation efficacy (AlphaLISA counts)	TrkB-phosphorylation efficacy relative to parental clone without CC bridge (%)	TrkB-phosphorylation potency (EC50, nM) [nM]	Binder
4220	100	9.95	TPP-22190 (bispecific antibody, human IgG1, kappa) heavy: QVQLVESGGGLVQPGGSLRLSCAASGYDFTHYGMNWVRQAPGKGLEWVGWINTYTGEPTYAADFKRRFTFSLDTSKSTAYLQMNSLRAEDTAVYYCAKYPYYYGTSHWYFDVWGQGTLVTVSSASTKGPSVFPLAPSSKSTSGGTAALGCLVKDYFPEPVTVSWNSGALTSGVHTFPAVLQSSGLYSLSSVVTVPSSSLGTQTYICNVNHKPSNTKVDKRV[in this place human IgG1 Fc with changes]GGGGSGGGGSDIQMTQSPSSLSASVGDRVTITCRTSENVYSNLAWYQQKPGKAPKLLIYAASNLQSGVPSRFSGSGSGTDYTFTISSLQPEDIATYYCQHFWGSPFTFGQGTKLEIKGGSEGKSSGSGSESKSTGGSQVQLVQSGAEVKKPGASVKVSCKASGYTFTNYDIIWVRQAPGQGLEWMGYINPYNDGTKYNEKFKGRVTMTRDTSTSTVYMELSSLRSEDTAVYYCARLLKYRRFRYYAIDYWGQGTTVTVSS light: DIQLTQSPSSLSASVGDRVTITCSASQDISNYLNWYQQKPGKAPKVLIYFTSSLHSGVPSRFSGSGSGTGFTLTISSLQPEDFATYYCQQYSTVPWTFGQGTKVEIKRTVAAPSVFIFPPSDEQLKSGTASVVCLLNNFYPREAKVQWKVDNALQSGNSQESVTEQDSKDSTYSLSSTLTLSKADYEKHKVYACEVTHQGLSSPVTKSFNRGEC
4850	100	5.49	TPP-22191 (bispecific antibody, human IgG1, kappa) heavy: EVQLVQSGGGLVQPGGSLRLSCAASGYDFTHYGMNWVRQAPGKGLEWVGWINTYTGEPTYAADFKRRFTFSLDTSKSTAYLQMNSLRAEDTAVYYCAKYPYYYGTSHWYFDVWGQGTLVTVSSASTKGPSVFPLAPSSKSTSGGTAALGCLVKDYFPEPVTVSWNSGALTSGVHTFPAVLQSSGLYSLSSVVTVPSSSLGTQTYICNVNHKPSNTKVDKRV[in this place human IgG1 Fc with changes]GGGGSGGGGSDIQMTQSPSSLSASVGDRVTITCRTSENVYSNLAWYQQKPGKAPKLLIYAASNLQSGVPSRFSGSGSGTDYTFTISSLQPEDIATYYCQHFWGSPFTFGQGTKLEIKGGSEGKSSGSGSESKSTGGSQVQLVQSGAEVKKPGASVKVSCKASGYTFTNYDIIWVRQAPGQGLEWMGYINPYNDGTKYNEKFKGRVTMTRDTSTSTVYMELSSLRSEDTAVYYCARLLKYRRFRYYAIDYWGQGTTVTVSS light: DIQLTQSPSSLSASVGDRVTITCSASQDISNYLNWYQQKPGKAPKVLIYFTSSLHSGVPSRFSGSGSGTGFTLTISSLQPEDFATYYCQQYSTVPWTFGQGTKVEIKRTVAAPSVFIFPPSDEQLKSGTASVVCLLNNFYPREAKVQWKVDNALQSGNSQESVTEQDSKDSTYSLSSTLTLSKADYEKHKVYACEVTHQGLSSPVTKSFNRGEC
5790	119	1.12	TPP-22215 (bispecific antibody, human IgG1, kappa) heavy: EVQLVQSGGGLVQPGGSLRLSCAASGYDFTHYGMNWVRQAPGKGLEWVGWINTYTGEPTYAADFKRRFTFSLDTSKSTAYLQMNSLRAEDTAVYYCAKYPYYYGTSHWYFDVWGQGTLVTVSSASTKGPSVFPLAPSSKSTSGGTAALGCLVKDYFPEPVTVSWNSGALTSGVHTFPAVLQSSGLYSLSSVVTVPSSSLGTQTYICNVNHKPSNTKVDKRV[in this place human IgG1 Fc with changes]GGGGSGGGGSDIQMTQSPSSLSASVGDRVTITCRTSENVYSNLAWYQQKPGKAPKLLIYAASNLQSGVPSRFSGSGSGTDYTFTISSLQPEDIATYYCQHFWGSPFTFGCGTKLEIKGGSEGKSSGSGSESKSTGGSQVQLVQSGAEVKKPGASVKVSCKASGYTFTNYDIIWVRQAPGQCLEWMGYINPYNDGTKYNEKFKGRVTMTRDTSTSTVYMELSSLRSEDTAVYYCARLLKYRRFRYYAIDYWGQGTTVTVSS light: DIQLTQSPSSLSASVGDRVTITCSASQDISNYLNWYQQKPGKAPKVLIYFTSSLHSGVPSRFSGSGSGTGFTLTISSLQPEDFATYYCQQYSTVPWTFGQGTKVEIKRTVAAPSVFIFPPSDEQLKSGTASVVCLLNNFYPREAKVQWKVDNALQSGNSQESVTEQDSKDSTYSLSSTLTLSKADYEKHKVYACEVTHQGLSSPVTKSFNRGEC
